# Measured values: article PMC4336329 (PLoS ONE, 2015)
# Out of some 310,000 compounds screened, about 2,200 (0.71%) showed an effect of 50% or more. Effects have a minus sign here. This is one part of the list.
# Molecular target: human ether-à-go-go-related gene (hERG) potassium channel (human, UniProt Q12809)
# Test: primary screen, population patch clamp on CHO cells stably expressing hERG
# Chain of human ether-à-go-go-related gene (hERG) potassium channel (Q12809 whole entry, looked up): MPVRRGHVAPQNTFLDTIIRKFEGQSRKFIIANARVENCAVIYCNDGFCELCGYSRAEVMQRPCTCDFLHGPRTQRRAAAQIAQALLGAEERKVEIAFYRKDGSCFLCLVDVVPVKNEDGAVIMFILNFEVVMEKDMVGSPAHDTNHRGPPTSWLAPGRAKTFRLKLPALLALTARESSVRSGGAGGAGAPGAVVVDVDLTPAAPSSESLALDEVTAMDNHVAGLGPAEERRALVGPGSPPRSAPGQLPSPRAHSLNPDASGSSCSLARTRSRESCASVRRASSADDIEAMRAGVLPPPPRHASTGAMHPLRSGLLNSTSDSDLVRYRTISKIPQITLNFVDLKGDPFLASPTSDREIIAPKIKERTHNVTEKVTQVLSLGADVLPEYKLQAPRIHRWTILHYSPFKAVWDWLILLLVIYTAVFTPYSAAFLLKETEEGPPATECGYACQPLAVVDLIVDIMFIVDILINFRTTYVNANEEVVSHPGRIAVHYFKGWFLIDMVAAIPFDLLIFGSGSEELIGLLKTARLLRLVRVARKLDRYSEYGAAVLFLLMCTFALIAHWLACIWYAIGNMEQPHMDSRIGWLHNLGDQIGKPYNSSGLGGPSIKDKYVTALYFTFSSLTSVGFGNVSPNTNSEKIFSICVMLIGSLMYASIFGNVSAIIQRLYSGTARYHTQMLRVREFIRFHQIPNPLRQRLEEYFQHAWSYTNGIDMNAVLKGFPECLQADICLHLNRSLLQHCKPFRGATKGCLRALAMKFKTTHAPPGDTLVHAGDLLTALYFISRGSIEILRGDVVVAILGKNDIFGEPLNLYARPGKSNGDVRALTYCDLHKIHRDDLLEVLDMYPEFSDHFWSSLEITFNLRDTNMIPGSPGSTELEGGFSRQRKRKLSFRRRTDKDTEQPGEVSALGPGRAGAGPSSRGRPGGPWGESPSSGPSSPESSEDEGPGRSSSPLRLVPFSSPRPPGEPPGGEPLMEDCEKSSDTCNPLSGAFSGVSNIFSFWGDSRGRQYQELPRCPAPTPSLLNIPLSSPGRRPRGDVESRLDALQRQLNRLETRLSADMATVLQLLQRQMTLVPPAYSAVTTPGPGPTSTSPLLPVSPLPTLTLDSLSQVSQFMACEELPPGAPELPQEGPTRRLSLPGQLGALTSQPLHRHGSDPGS
row,SMILES,"hERG current change (%, negative = inhibition) at 1uM [%]"
1,COC(=O)c1ccc(CSc2n[nH]c(-c3ccccc3)n2)o1,12.4
2,CC(CCc1ccccc1)NC(=O)c1nnc(Cc2ccc(Cl)cc2)o1 (stereo not drawn),11.4
3,O=C(NNS(=O)(=O)c1ccccc1)C1CCN(S(=O)(=O)c2ccccc2)CC1,9.9
4,CC1CCCCN1S(=O)(=O)c1ccc(C(=O)Nc2sccc2C(N)=O)cc1 (stereo not drawn),13.6
5,Cc1csc(NC(=O)c2ccccc2O)n1,2.99
6,O=C(COc1ccc(S(=O)(=O)N2CCCC2)cc1)N1CCN(c2ccccc2F)CC1,1.77
7,CNC(=O)C1CCC(=O)N1Cc1ccccc1Cl (stereo not drawn),7.23
8,COc1cccc(NC(=O)COC(=O)Cn2c(C)csc2=O)c1,4.09
9,CN(C)C(=O)CSc1nnc(C23CC4CC(CC(C4)C2)C3)o1,9.12
10,COc1ccc(CN(C(=O)CN2C(=O)c3ccccc3S2(=O)=O)C(C(=O)NCC2CCCO2)c2ccncc2)cc1 (stereo not drawn),0.0687
11,Cn1c(N)c(C(=O)CSc2nnc(Cc3cccs3)n2C2CC2)c(=O)n(C)c1=O,5.11
12,CC1(CCc2ccccc2)NC(=O)N(CC(=O)O)C1=O (stereo not drawn),10.9
13,CCC(=O)N1CCN(c2ccc(NC(=O)COc3ccccc3Cl)cc2)CC1,-5.62
14,CC(C)NC(=O)CSc1nnc(-c2ccc(C(C)(C)C)cc2)n1C,3.21
15,COC(=O)c1ccc(NC(=O)CSc2nc(N)c(NC(=O)c3ccc(Br)o3)c(=O)[nH]2)cc1,15.6
16,COCCN1Cc2cccc(C(=O)Nc3ccccc3OC)c2C1=O,-6.84
17,COc1ccc(OCC(=O)N2CCN(c3nnc(-c4ccccc4)c4ccccc34)CC2)cc1,-12.4
18,Cc1ccccc1C(=O)NCC(=O)NNC(=O)c1cccc(Cl)c1,12.1
19,CCOC(=O)C1(CCOC)CCN(C(=O)Cc2ccc3ccccc3c2)CC1,9.92
20,CCc1ccc(NC(=O)CCn2ccnc2C)cc1,6.77
21,Cn1c(C(=O)OC(C(=O)NC2CCCC2)c2ccncc2)cc2sccc21 (stereo not drawn),9.29
22,Cc1nn(-c2c(Cl)cc(Cl)cc2Cl)c(=O)c2ccccc12,10.6
23,Cc1ccc(NC(=O)NN(C)c2c(Cl)c(Cl)nn2C)cc1,-5.56

row,SMILES,"hERG current change (%, negative = inhibition) at 1uM [%]"
1,CC(NC(=O)CCSc1nc(-c2ccc3c(c2)OCO3)cc(C(F)(F)F)n1)c1ccccc1 (stereo not drawn),9.24
2,CCOc1ccc(S(=O)(=O)N(CC(=O)O)c2ccc(C)cc2)cc1,6.51
3,Cc1nn(-c2ccccc2)c(C)c1C(=O)OC/C(O)=C(\C#N)c1nc2ccccc2[nH]1,8.32
4,O=c1[nH]c(-c2ccccc2)nnc1-c1ccccc1,5.87
5,Cc1cc(C)n(CC(=O)N2CCCC(N3CCN(c4ccc(F)cc4)CC3)C2)n1 (stereo not drawn),1.87
6,O=C(Nc1cccc(S(=O)(=O)NC2=NCCC2)c1)c1c(F)cccc1Cl,6.59
7,Cc1cc(C)cc(NCC(=O)Nc2c(C)cccc2C)c1,13.6
8,COc1ccc(-n2ccnc2SCC(=O)NCc2ccccc2)c(OC)c1,19.9
9,Cc1oc(-c2cccc(C(F)(F)F)c2)nc1CN1CCC[C@H]1CO,2.44
10,CNCC(O)CN1CCN(c2ccccc2OC)CC1.Cl (stereo not drawn),8.1
11,Cc1ccc(OCCn2ncc3ccccc3c2=O)c(C)c1,12.6
12,COc1ccc(NC(=O)N2CCC(n3nnc4cc(C)ccc43)CC2)cc1,-7.74
13,CCCCN1C(=O)c2ccc(C(=O)NC3=NCCS3)cc2C1=O,10.6
14,O=C(NNC(=O)c1cccnc1)Nc1cccc(Cl)c1Cl,12.7
15,O=C(O)c1c(F)c(F)cc2ccccc12,3.1
16,COc1ccc(CN(C)C(c2ccccc2)c2nnnn2-c2ccccc2C)c(OC)c1C (stereo not drawn),11.5
17,COc1ccc(CC(=O)Nc2ccccc2C(C)=O)cc1S(=O)(=O)N1CCOCC1,-15.6
18,CC(C)(O)C#Cc1ccc(C(=O)N2CCN(c3ccc(F)cc3)CC2)cc1,5.2
19,NNC(=O)CSc1ncc(-c2ccccc2)[nH]1,15.5
20,CC(Sc1ccccn1)C(=O)Nc1ccc2c(c1)OCO2 (stereo not drawn),11
21,C[C@]12CC[C@@H](O)C[C@@H]1CC[C@@H]1[C@@H]2CC[C@]2(C)C(=O)CC[C@@H]12,12.2
22,COc1cc2c(cc1OC)-c1cc(Nc3ccc(C)cc3)nc(=O)n1CC2,-0.489
23,COc1ccc(S(=O)(=O)N/N=C(/C)c2ccc(C)o2)cc1,7.39

row,SMILES,"hERG current change (%, negative = inhibition) at 1uM [%]"
1,CC(C)C(NC(=O)CSc1ccc(Cl)cc1)C(C)C,8.13
2,O=C(C1CCN(c2nc(-c3ccccc3)nc3c2CCC3)CC1)N1CCCC1,-11.1
3,C=CCn1c(SCC(=O)N2CCOCC2)nc(O)cc1=O,11.7
4,O=C(CN1CCN(c2cccc(C(F)(F)F)c2)CC1)N(C1CCCC1)C1CCS(=O)(=O)C1 (stereo not drawn),6.67
5,CC(=O)OC1N=C(c2ccccc2)c2cc(Br)ccc2N(C)C1=O (stereo not drawn),4.1
6,COCCNCc1ccccc1[N+](=O)[O-],8.17
7,C=CCn1c(CNS(=O)(=O)c2ccc(F)cc2)n[nH]c1=S,1.53
8,CCCn1c(=O)[nH]c(=O)c2c1nc(-c1ccccc1)n2CCN1CCOCC1,6.02
9,O=C(CCNC(=O)c1ccc(Br)cc1)NCc1cccnc1,12.9
10,Cn1ccnc1SCC(=O)Nc1cccc(S(=O)(=O)N2CCCCCC2)c1,8.44
11,Cc1ccnc(NC(=O)c2ccc(Br)s2)c1.Cl,5.59
12,COc1ccc(C2(CNC(=O)c3ccc(OC)c([N+](=O)[O-])c3)CCCCC2)cc1OC,13.8
13,O=S(=O)(NC1CCCCC1Oc1ccccc1)c1ccc(Cl)cc1 (stereo not drawn),-4.69
14,O=C(C[n+]1cn(C(F)F)c2ccccc21)c1ccc(Br)cc1.[Br-],3.52
15,COc1ccc(S(=O)(=O)N2CCOCC2)cc1NC(=O)CNC(=O)c1cccs1,15.6
16,O=C(Nc1cccc(S(=O)(=O)N2CCCC2)c1)c1ccccc1OC(F)F,8.5
17,Oc1ccc(Br)cc1CNc1cnc2ccccc2c1,13.7
18,CCc1ccc(NC(=O)[C@H](NC(=O)[C@@H]2Cc3ccccc3CN2)c2ccccc2)cc1,6.98
19,CCCNS(=O)(=O)c1ccc(OCC(=O)Nc2ccc3c(c2)OCCO3)cc1,1.97
20,CC(=O)NC1(c2cccc(F)c2)CCN(CC(=O)NC2CCCCC2)CC1,2.4
21,COc1ccc(/C=C/C(=O)NNC(=O)c2ccncc2)c(OC)c1,7.31
22,Cc1cccc(C)c1Nc1nnc(SCC(=O)NCc2cccs2)s1,2.57
23,N#CCC(=O)Nc1ncn(Cc2ccccc2Cl)n1,14.3

row,SMILES,"hERG current change (%, negative = inhibition) at 1uM [%]"
1,O=C(CSc1nnc2sc3ccccc3n12)NCc1ccco1,15.4
2,COc1cc2c3nnc(-c4ccc(F)cc4)c-3cn(Cc3ccccc3)c2cc1OC,7.7
3,CCn1c(Cl)c(C=O)s/c1=N\S(=O)(=O)c1ccccc1,15.2
4,COC1c2ccccc2C(=O)N1Cc1ccc(F)cc1 (stereo not drawn),12.6
5,NC(=O)C(c1ccccc1)C1CCCCC1 (stereo not drawn),4.62
6,COCCn1cnnc1SCC(=O)c1ccc(S(=O)(=O)N2CCCC2)cc1,10.8
7,CC(=O)c1ccc(NC(=O)COC(=O)c2c3c(nc4ccccc24)/C(=C\c2cccs2)CCC3)cc1,9.77
8,COc1cc(OC)cc(C(=O)OCc2cc3ccccc3[nH]c2=O)c1,8.7
9,COc1ccccc1-n1c(C)cc(C=O)c1C,8.45
10,CC(NCC1(N2CCOCC2)CCCCC1)C(=O)N1CCc2ccccc21.O=C(O)C(=O)O (stereo not drawn),7.84
11,Cc1ccccc1CSc1nncn1N,7.14
12,CC(C)N(Cc1nc(-c2ccccc2)no1)C(=O)c1ccc([N+](=O)[O-])cc1,-6.76
13,COc1ccc(CNc2ccccc2)cc1Br,-9.21
14,Cc1c(NC(=O)c2cccnc2)c(=O)n(-c2ccccc2)n1C,8.22
15,Cc1ccc(-c2nc(Cl)nc3ccccc23)cc1,16.9
16,COC(=O)c1ccc(NC(=O)c2cc(Cl)ccc2OC)cc1,20.5
17,COc1cc(/C=C(\NC(=O)c2ccccc2)C(=O)NCC(=O)O)c([N+](=O)[O-])cc1OC,15.7
18,COc1ccc(-n2c(SCC(=O)Nc3cc(C(=O)O)ccc3C)nc3ccccc3c2=O)cc1Cl,14.3
19,Cc1cccc(N2CC(C(=O)O)CC2=O)c1 (stereo not drawn),-0.186
20,O=C(CN1C(=O)NC2(CCCC2)C1=O)Nc1nc(-c2ccc(F)c(F)c2)cs1,0.722
21,O=C(NCCc1ccccc1)C(c1ccncc1)N(C(=O)c1csnn1)C1CC1 (stereo not drawn),4.45
